Consider one compound from PubChem BioAssay AID2060503 (Molecular Pharmacology Branch, DTP, NCI, 2025).

Some entries of the source have several records that differ or are many. The other results are left out here. An entry can have further records. The records of an entry are repeated measurements (runs, samples, wells, individuals or studies). Brackets with × count equal records among those shown.

In general, viability, T/C refers to the result in the treated group divided by that in the control group, in per cent. Broadly, the IC50 is the concentration at which inhibition is half-maximal.

The test deals with 817829-284-R-J1-PDC complex spheroids, viability. Nature of the test: Anticancer human tumor 817829-284-R-J1-PDC patient-derived colon adenocarcinoma cell line growth inhibition [GQUAD]. Conditions: for viability, T/C: stronger effect = lower value. The text has this:
DNA G-quadruplex Stabilizer Agents in Combinations in Complex Spheroids
A high-throughput screen of multi-cell type tumor spheroids was designed to identify active combinations of DNA G-quadruplex stabilizer agents and targeted small molecules. Complex spheroids include a stromal component modeled by human endothelial cells (HUVEC) and fibroblasts modeled by human mesenchymal stem cells (MSCs). The concentration ranges selected for each drug and investigational agent were based upon clinically achievable concentrations if the clinical Cmax of the agent was known.
Compounds. The drugs and investigational agents: pidnarulex (CX-5461; NSC782164), APTO-253 (NSC789042), BRACO-19 (NSC847499), peposertib (NSC802822), ceralasertib (NSC780249), elimusertib (NSC800525), camonsertib (NSC841442), AZD-1390 (NSC803789), olaparib (NSC753686), talazoparib (NSC767125), ART-558 (NSC835418), sotorasib (NSC818433), MRTX-1133 (NSC836407), SN-38 (NSC673596), topotecan (NSC609699), etoposide (NSC141540), doxorubicin (NSC123127), gemcitabine (NSC613327), 5-fluorouracil (NSC19893), paclitaxel (NSC125973), vemurafenib (NSC761431), panobinostat (NSC761190), R-306465 (JNJ-16241199; NSC773264), adavosertib (NSC754352), TP-3654 (NSC805149), carboplatin (NSC241240), KSQ-4279 (NSC840948), and staurosporine (NSC755774) were obtained from the National Cancer Institute (NCI) Developmental Therapeutics Program Chemical Repository (34). The FDA-approved anticancer drug set is available from the NCI Developmental Therapeutics Program. […] The stock solutions were prepared in dimethyl sulfoxide (DMSO, Sigma-Aldrich, St. Louis, MO, cat. D2650) at 800-fold the tested concentration and stored at -70 degrees C prior to their use. All drugs and investigational agents were tested over a range starting from a high concentration at or near the clinical Cmax and decreasing in half-log increments. If the clinical Cmax for an agent had not been determined, the highest concentration tested was 10 microM.
2.3 Cell Culture. All cells were maintained in an incubator at 37 degrees C and 5% CO2 with 95% humidity. The PDC lines were cultured according to standard operating procedures established by the NCI PDMR. All PDCs were thawed and cultured in Matrigel-coated flasks prepared with a working solution of 1X Ham's F-12 nutrient mix, without supplementation (Invitrogen, cat. 11765054), 100 U/mL penicillin-streptomycin (Invitrogen, cat. 15140122), and 2.5% Matrigel (Corning Inc., cat. 354248) for the first three passages. […]
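Note: spheroids exposed to agents for 7 days before readout.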
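Throughout, for viability, T/C: percent viability relative to DMSO vehicle control taken as 100%.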

On to `Cc1[nH]c2ccc(F)cc2c1-c1nc2c3cccnc3c3ncccc3c2[nH]1`, for which the viability, T/C is, setting by setting: (compound alone 0.0316 µM) 92.1, 108, 105 (2×), 106, 97, 110, 116, 101, 94.3, 95.2, 119%; (compound alone 3.16 µM) 51.5, 49.6, 41.1, 63.1, 53.4, 44.5, 49.4, 59.6, 3.83, 67.5, 78.2, 3.3%; (compound alone 10 µM) 9.63, 34, 11.4, 22.4, 24.6, 44.4, 32.4, 24.5, 2.97, 48.7, 46, 3.09%. In addition, the IC50 (compound alone, run of 02/26/2024) is given as 1.78, 9.23, 8.68, 1.85 µM.
